Results: PubChem BioAssay AID624296 (National Center for Advancing Translational Sciences (NCATS), 2012)
Out of some 350,000 compounds screened, about 9,900 (2.8%) were called active. The shares of active, inactive and inconclusive entries below differ from those in the screen. Calls come from the whole dose curve; as a rule, active = well fitted activation curve with a large enough effect; inconclusive = small, poorly fitted or top-dose-only effect; inactive = no such curve, though single readings can be large or run the other way. Potencies of inconclusive entries are left out as doubtful fits.

Test: A quantitative high throughput screen for small molecules that induce DNA re-replication in MCF 10a normal breast cells. Note: nearly all actives have a fitted effect of over 50% in size.
Details: MCF 10A DNA re-replication, Hoechst nuclear intensity, 48 h; series mostly up to 46.1 µM
Potency is the fitted concentration of half-maximal effect; tags give direction and shape of the fitted curve.

Row | Compound | Potency
1 | CCOC(=O)C1=C(C)N=c2s/c(=C/c3ccc(OCC(=O)O)cc3)c(=O)n2C1c1ccc(F)cc1 (centres undefined) | inconclusive [activator, single point]
2 | NS(=O)(=O)c1ccc(CCNCC(=O)NC2CC2)cc1 | inconclusive [activator, full curve, poor fit]
3 | CNC(=O)C(=O)NCC1OCCCN1S(=O)(=O)c1ccc2c(c1)OCCO2 (centres undefined) | inconclusive [activator, single point]
4 | CCCCNC(=O)Cn1c(=O)c2c(ncn2CC)n(Cc2ccccc2)c1=O | inactive
5 | CCCn1cnc2c(SCc3ccc(Cl)cc3)nc(N)nc21 | inconclusive [activator, partial curve, poor fit]
6 | Nc1cc(S(=O)(=O)Nc2ccc(Cl)cc2)ccc1N1CCOCC1 | inconclusive [activator, full curve, poor fit]
7 | Cc1cc(C)c2c(N)c(C(=O)NCC3CCCCC3)sc2n1 | inconclusive [activator, partial curve, poor fit]
8 | O=C1Nc2ccc(Br)cc2C1=Nc1cccnc1 | inconclusive [activator, single point]
9 | O=C(Nc1ccccc1N1CCCC1)c1ccc([N+](=O)[O-])o1 | active: 23.1 µM
10 | O=C(/C(C=Nc1ccc(Br)cc1)=C(/O)c1ccco1)C(F)(F)F | inconclusive [activator, single point]
11 | CCc1ccc(-n2c(SCc3cc(=O)n4cc(Br)ccc4n3)nc3[nH]ncc3c2=O)cc1 | inconclusive [activator, single point]
12 | NCCCCCc1nnc(SCC(N)=O)o1 | inconclusive [activator, partial curve, poor fit]
13 | CCC(=O)N1CCN(c2cc(N3CCN(C)CC3)c(F)cc2[N+](=O)[O-])CC1 | inconclusive [activator, partial curve, poor fit]
14 | C[C@@H](NCCc1ccc(O)cc1)[C@@H](O)c1ccc(O)cc1 | inconclusive [activator, full curve, poor fit]
15 | CCCNc1c(NS(=O)(=O)c2ccc(C)cc2C)c(=O)oc2ccccc12 | inactive
16 | Cc1cccc(C(=O)N2CCC(Cc3ccccc3)CC2)c1[N+](=O)[O-] | inconclusive [activator, partial curve]
17 | CC(=O)C(=Nc1ccc(Cl)cc1Cl)NNc1cccc(Cl)c1 | inconclusive [activator, single point]
18 | O=C(N/N=C/c1ccc2c(c1)OCO2)c1ccc2c(c1)OCCO2 | inconclusive [activator, single point]
19 | Cn1c(C2CCCN2C(=O)OC(C)(C)C)n[nH]c1=S (centres undefined) | inconclusive [activator, single point]
20 | S=C(NCCSCc1ccc(Cl)c(Cl)c1)Nc1ccccc1 | active: 25.9 µM
21 | COc1ccc(S(=O)(=O)N2CCCCC2)cc1NC(=O)CNc1ccccc1C(C)=O | inconclusive [activator, single point]
22 | CN(N)C(=S)Nc1ccc(Cl)cc1 | inactive
23 | Cc1ccc(OCCN(C)C(=O)C2CCC(=O)N(CCCN3CCOCC3)C2)cc1 (centres undefined) | inconclusive [activator, partial curve, poor fit]

Row | Compound | Potency
24 | O=C(Cn1cc([N+](=O)[O-])cn1)Nc1nc2ccccc2s1 | active: 20.6 µM
25 | O=C(N=C1c2ccccc2CN1c1ccc(F)c(F)c1)c1cccnc1 | inconclusive [activator, full curve, poor fit]
26 | CCn1nc(NS(=O)(=O)c2cccc3nonc23)c2cc3ccc(C)cc3nc21 | inactive
27 | CCCOc1cccc(C(=O)Nc2cccnc2)c1 | inconclusive [activator, single point]
28 | COc1ccccc1-c1sc2ccccc2c1-c1ccc2c(c1)OCO2 | inconclusive [activator, single point]
29 | CC1CC1c1ccc(/C=C(\C#N)C(=O)Nc2cccc(Cl)c2Cl)o1 (centres undefined) | inconclusive [activator, single point]
30 | CC(C)C(=O)NC(C)C(c1cccs1)N1CCN(c2ccccc2)CC1 (centres undefined) | inactive
31 | COc1ccccc1-c1c(C)nn2c(-c3ccccc3)cc(C)nc12 | inconclusive [activator, single point]
32 | CCn1nnc(NC(=S)NC(=O)c2ccc(-c3cccc(Cl)c3)o2)n1 | inactive
33 | CN(C)c1ccc(-c2ccc3c(=O)c4ccccc4n(C)c3c2)cn1 | inconclusive [activator, full curve, poor fit]
34 | CSc1nc(-c2ccco2)cc(-c2ccccc2)c1C#N | inactive
35 | O=C(N/N=C\c1cc([N+](=O)[O-])ccc1N1CCOCC1)c1ccccn1 | inconclusive [activator, single point]
36 | Cc1ccc2c(C)nc(Nc3nc(CSc4nnc(C)s4)cc(=O)[nH]3)nc2c1 | inconclusive [activator, single point]
37 | CCC(=O)Nc1nonc1-c1nc2ccccc2n1Cc1ccc(Cl)c(Cl)c1 | active: 5.17 µM
38 | O=C1C=C(c2cc(Cl)cc(Cl)c2)C[C@@H](c2ccc3c(c2)OCO3)C1 | inconclusive [activator, full curve, poor fit]
39 | O=C(COC(=O)c1cc(=O)[nH]c2ccccc12)NC(=O)NC1CCCCC1 | inconclusive [activator, single point]
40 | COc1ccc(NC(=O)c2cccnc2)c([N+](=O)[O-])c1 | inconclusive [activator, single point]
41 | C[C@@H]1CC=C[C@H]2[C@H]1C(=O)N(Cc1ccccc1)[C@H]2c1ccc2ccccc2c1/C=C/c1ccccc1 | inconclusive [activator, single point]
42 | Cc1ccc(NC(=S)N2CCN(Cc3ccc4c(c3)OCO4)CC2)c(C)c1 | inconclusive [activator, single point]
43 | CCOC(=O)C1=C(C)N(C[C@@H]2CC[C@@H](Cc3ccc(-c4ccccc4)cc3)O2)C(=O)NC1C1CC1 (some centres undefined) | inconclusive [activator, partial curve, poor fit]
44 | CCOC(=O)CSC1=C(C#N)C(c2ccco2)C(C(=O)Nc2cccc(C(F)(F)F)c2)=C(C)N1 (centres undefined) | inconclusive [activator, single point]
45 | O=C1c2cccc3c(N4CCCCC4)ccc(c23)C(=O)N1c1cccc(O)c1 | active: 11.6 µM
46 | COc1ccc(CNC(=O)c2cc(S(=O)(=O)N3CCCCC3)ccc2N2CCOCC2)cc1OC | inactive

Row | Compound | Potency
47 | O=C(CN1C(=O)NC2(CCCCCC2)C1=O)N1CCN(S(=O)(=O)c2ccccc2)CC1 | inactive
48 | COCCNC(=O)c1c(N)n(-c2ccccc2)c2nc3ccccc3nc12 | inconclusive [activator, single point]
49 | CN(CCOc1ccccc1)CC(=O)Nc1ccc(Cl)c(S(=O)(=O)N(C)C)c1 | inactive
50 | CN1CCN(CC(O)COCCOc2ccc(Br)cc2)CC1 (centres undefined) | inconclusive [activator, partial curve]
51 | COC(=O)c1ccc(S(=O)(=O)NCc2ccc(S(N)(=O)=O)cc2)o1 | inconclusive [activator, single point]
52 | CCCCN(CC)S(=O)(=O)c1ccc2c(c1)CCCN2C(C)=O | inactive
53 | O=C(O)CCCN1C(=O)/C(=C\c2ccccc2OCc2ccccc2)SC1=S | inconclusive [activator, single point]
54 | Cc1ccc(-n2c(-c3ccncc3)n[nH]c2=S)c(C)c1 | inactive
55 | Cc1cc(C2=NNC(=NC3CC3)SC2)c(C)n1Cc1ccco1 | active: 6.51 µM
56 | Ic1ccc(N2CCN(Cc3c[nH]c4ncccc34)CC2)cc1 | inconclusive [activator, single point]
57 | O=C1CN(c2nc(-c3cccs3)nc3sc4c(c23)CCCC4)CCN1 | inconclusive [activator, single point]
58 | CCn1c(SCc2ccc(C#N)cc2)nnc1-c1cccc(Cl)c1 | inactive
59 | CC1=NN(c2ccc(Cl)cc2)C(=O)C1C(c1cccc(O)c1)c1c(C)[nH]n(-c2ccc(Cl)cc2)c1=O (centres undefined) | inconclusive [activator, single point]
60 | O=c1c2ccccc2[nH]c(=S)n1Cc1ccccc1 | inactive
61 | Cc1ccc(C2=N/C(=C\c3ccc(F)cc3)C(=O)N2)cc1 | inconclusive [activator, full curve, poor fit]
62 | CS(=O)(=O)N(CC(=O)Nc1ccccc1Sc1ccccc1)c1cccc(Br)c1 | inconclusive [activator, partial curve, poor fit]
63 | O=C1NC2(CCCCC2)N=C1c1ccc(Br)cc1 | inactive
64 | COc1ccc(S(=O)(=O)N2CCOCC2)cc1C(=O)NCc1c(C)nn(Cc2ccccc2)c1C | inactive
65 | OC(c1ccccc1)(c1ccccc1)c1nccc2ccccc12 | inactive
66 | Cc1cccc(NC(=O)Nc2ccc(Oc3c(F)c(F)c(F)c(F)c3F)cc2)c1 | inactive
67 | O=C(NC(=O)N1CCN(c2cccc(Cl)c2)CC1)c1ccc(Cl)cc1 | active: 5.17 µM
68 | COc1ccc(NC(=O)Nc2cccc(Cl)c2Cl)c(OC)n1 | inconclusive [activator, single point]
69 | CCC(C)C1NC(=O)C(CCNCS(=O)(=O)O)NC(=O)C(NC(=O)C(CCNCS(=O)(=O)O)NC(=O)C(NC(=O)C(CCNCS(=O)(=O)O)NC(=O)CCCCC(C)C)C(C)O)CCNC(=O)C(C(C)O)NC(=O)C(CCNCS(=O)(=O)O)NC(=O)C(CCNCS(=O)(=O)O)NC(=O)C(C(C)CC)NC1=O (centres undefined) | inconclusive [activator, partial curve, poor fit]
